We go through one substance from patent publication US20210015897A1, “METHODS TO PRODUCE PEPTIDES, POLYPEPTIDES OR CELLS FOR MODULATING IMMUNITY” (IMNATE SARL, priority 2017, published 2021).

For the experiment, the system named is NKT cells. Nature of the experiment: In vitro stimulation of NKT cells by peptide presented with dendritic cells. The conditions noted are these: peptide with CD8 cofactor complementary sequence in flanking residues. The protocol: The flavivirus non-structural glycoprotein NS1 protein contains epitopes potentially presented by the CD1d molecule. In order to identify them, synthetic peptides covering the entire sequence of the protein are produced, with an overlap of 5 aminoacids. Such peptides are then added for an overnight incubation to human dendritic cells obtained by conversion of peripheral blood monocytes, as detailed in Example 5. Loaded dendritic cells are then incubated in the presence of CD3+ lymphocytes obtained from PBMCs (see Example 2). Cultures are carried out in the presence of antibodies towards class I and class II molecules so as to prevent activation of corresponding cells.
After 3 to 4 stimulation cycles, the CD3+ T cells are recovered and analyzed in terms of phenotype and expression of the canonical transcription factor, PLZF. Cells are then further expanded and cloned.
Peptide of SEQ ID NO: 21 is produced by synthesis with inclusion in its flanking residues of a complementary sequence for the CD8 co-factor and used in vitro to stimulate NKT cells by presentation with dendritic cells.

Regarding “SEQ ID NO: 21: Dengue NS1 CD1d epitope peptide with a complementary sequence for the CD8 co-factor in flanking residues (FIEVKSCHWSNTQQ; Flavivirus NS1 + CD8 motif)”, the NKT cell phenotype result is “forces NKT towards a cytotoxic phenotype” and the “fate of the dendritic cell with which a synapse has been formed” value was “eliminates the dendritic cell”.
